# Experimental data reported in the BET-seq Pho4 binding data (Le et al. 2018).
# The list shows a part of the results. The energies were worked out here from pooled read counts, against the library average; single values are noisy.
# Biological target: T1, Pho4 (S. cerevisiae) (UniProt P07270)
# T1 sequence: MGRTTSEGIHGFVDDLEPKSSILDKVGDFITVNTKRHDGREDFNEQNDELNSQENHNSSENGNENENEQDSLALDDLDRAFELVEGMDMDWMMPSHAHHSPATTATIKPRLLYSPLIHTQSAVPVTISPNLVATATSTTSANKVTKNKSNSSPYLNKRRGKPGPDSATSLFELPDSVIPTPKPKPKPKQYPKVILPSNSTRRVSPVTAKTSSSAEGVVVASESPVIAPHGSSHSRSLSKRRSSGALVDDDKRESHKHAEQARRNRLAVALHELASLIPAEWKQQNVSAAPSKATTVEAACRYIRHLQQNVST
# Assay: relative binding free energy (BET-seq); higher = weaker binding
# Details: reference: library average
row,Sequence,relative binding free energy [kcal/mol]
1,GGCTACACGTGGGGAA,0.09
2,AAAGTCACGTGATGTT,0.28
3,TGGCGCACGTGTTGCA,0
4,AACGCCACGTGGGGTT,-0.11
5,TTTGTCACGTGAAATG,0.34
6,TAGTGCACGTGTCTGG,-0.13
7,TCGGACACGTGGTATT,-0.02
8,TACGACACGTGTATGG,0.05
9,TAGTTCACGTGTATAG,0.14
10,TTGGCCACGTGGGCTA,-0.21
11,AGGTACACGTGCGAGT,0.06
12,GGGGTCACGTGAGCGG,0.3
13,GGGGGCACGTGGAAAC,0.07
14,TGTGACACGTGTTTCA,0.04
15,CTGTACACGTGATTTG,0.31
16,GGTCTCACGTGGCGTT,0.19
17,AATGGCACGTGTGGAC,-0.04
18,GTTATCACGTGTTCGT,0.11
19,TGGGACACGTGGTTGT,0.06
20,TAGCTCACGTGTAGTG,0.3
21,TAACTCACGTGTGTGG,0.22
22,GTACTCACGTGTGGTG,0.21
23,CTGCTCACGTGGGTGC,0.22
24,AATTTCACGTGTGGCA,0.19
25,AATTGCACGTGAGATA,0.25
26,GGATGCACGTGCTGTG,-0.06

row,Sequence,relative binding free energy [kcal/mol]
1,CTTGTCACGTGAAGTA,0.2
2,TTGTTCACGTGAACTA,0.35
3,CTATTCACGTGTCGGG,0.3
4,CTAAGCACGTGTCGGG,0.02
5,CGGGTCACGTGCATGT,-0.05
6,AATTGCACGTGATGCG,0.16
7,GGTTACACGTGTGGCA,0.25
8,TCGTACACGTGGAGAG,0.23
9,GATTGCACGTGGTATG,-0.07
10,AACGTCACGTGGTGTT,-0.05
11,CTTGTCACGTGATTAG,0.25
12,CGGGGCACGTGGGACT,-0.14
13,ATCGACACGTGTATGG,0.06
14,CGGAACACGTGAAGGG,0.28
15,TGTGACACGTGATTTG,0.14
16,ATGGGCACGTGATGGC,0.05
17,GTTAACACGTGCGGTT,0.14
18,ATTGTCACGTGACTGG,0.19
19,ATAATCACGTGGTTTA,-0.06
20,AATTGCACGTGTTTCT,-0.01
21,GTGAGCACGTGTGGTA,-0.05
22,ATTGGCACGTGGGGTT,-0.15
23,GCGTTCACGTGTTTGT,0.34
24,GGTGACACGTGTTTGA,0.11
25,TGATGCACGTGCGTGC,-0.09
26,GATGGCACGTGAGTAT,0.15

row,Sequence,relative binding free energy [kcal/mol]
1,GGAGCCACGTGGGAGG,-0.08
2,GAGGGCACGTGGTGTG,-0.06
3,GTAGGCACGTGTGTTC,0.04
4,TCGTTCACGTGAGGTG,0.46
5,AGATGCACGTGGGCGA,-0.23
6,GGGTACACGTGAGCTG,0.24
7,TATTTCACGTGACAGT,0.21
8,AATGGCACGTGGAGGT,-0.05
9,TGGGGCACGTGCAAGT,-0.01
10,GGTTACACGTGGCGCT,0.08
11,TCGGTCACGTGAGCGG,0.11
12,AAGCGCACGTGGTGTT,-0.21
13,GATAGCACGTGTGAAT,0.24
14,CTTGGCACGTGGGTGG,-0.11
15,AATGGCACGTGGCGCG,-0.31
16,GTGGACACGTGTGCAG,0.02
17,GGCAGCACGTGTTTGG,0.01
18,AGGGGCACGTGTGCAG,-0.07
19,TTAGACACGTGGATGT,0.01
20,ATGCGCACGTGCGGGG,-0.09
21,TGTACCACGTGGTGGG,-0.16
22,ATTTCCACGTGGGTGG,-0.02
23,TAGAGCACGTGAGGAA,0.21
24,TTCGGCACGTGGAGGC,-0.16
25,TTTAGCACGTGGTTTT,-0.1
26,TAGTTCACGTGATGGA,0.52

row,Sequence,relative binding free energy [kcal/mol]
1,AGTCGCACGTGGTGGA,-0.13
2,GGTCACACGTGTTTGT,0.12
3,TGCGACACGTGTGGTT,-0.02
4,GGGGTCACGTGTTAAA,0.22
5,TGAAGCACGTGTGGTA,-0.02
6,CGGAGCACGTGGTGGA,-0.1
7,GGGGCCACGTGATTGT,0.21
8,TAAGTCACGTGCATGT,0
9,TTATACACGTGGTTAG,-0.09
10,TTGATCACGTGTTTTG,0.12
11,TGTGTCACGTGCCATT,-0.06
12,AGGGGCACGTGTGGTT,-0.03
13,CTTGACACGTGAGTTT,0.3
14,CTGTTCACGTGATTGT,0.32
15,TGATTCACGTGTCCTG,0.28
16,GTAATCACGTGTTTTT,0.29
17,TGGGACACGTGGCGTC,-0.07
18,TCTGTCACGTGGCTGT,0
19,ATAAGCACGTGCTTGT,-0.12
20,TGTTGCACGTGCCGGA,-0.16
21,TTGATCACGTGTATAG,0.2
22,TACTTCACGTGAGGTG,0.38
23,ATGAACACGTGTTTTT,0.05
24,TTTCGCACGTGAAGAG,0.18
25,AGGATCACGTGCGGAA,0.3
26,AATGGCACGTGAGTGA,0.13

row,Sequence,relative binding free energy [kcal/mol]
1,GTGGCCACGTGTAATG,-0.01
2,TGATGCACGTGAGAGT,0.27
3,GCAGGCACGTGGGGCG,-0.3
4,TTGTTCACGTGTTAGG,0.36
5,TCTGACACGTGCGGTT,0.03
6,CTTGTCACGTGGTATA,0
7,TTTGACACGTGGCCGT,-0.15
8,TAGTACACGTGTACTG,0.03
9,ATGGTCACGTGAAAGA,0.29
10,GGCTTCACGTGGGGAG,0.33
11,GTTAGCACGTGTCGGC,0.08
12,TGGATCACGTGGCTTT,0.12
13,TCGTTCACGTGCTGGT,0.2
14,AGTGTCACGTGTGTGT,0.05
15,GGTAGCACGTGCTGTA,0.08
16,GCGGGCACGTGTGAAT,0.01
17,TTGTTCACGTGTTTAA,0.17
18,AAAGGCACGTGATGGT,0
19,AGTATCACGTGATGGT,0.27
20,GAGGTCACGTGCGCGT,0.02
21,TTACACACGTGGGTAT,-0.05
22,TTCATCACGTGGGGGT,-0.01
23,TATTTCACGTGGTCGT,0.28
24,TTCGTCACGTGATTCG,0.25
25,GAGAGCACGTGGGGAG,-0.07
26,GTGGGCACGTGAGGGT,0.25

row,Sequence,relative binding free energy [kcal/mol]
1,TACTTCACGTGTTGTG,0.09
2,GAGTACACGTGTGATA,0.17
3,GGGAACACGTGGTCGG,0.15
4,CGGTACACGTGTCGTG,0.05
5,ATTACCACGTGTGGTG,-0.02
6,TGTGACACGTGCTGCG,-0.07
7,GGGATCACGTGCCGGT,0.1
8,TTTAACACGTGAAAGG,0.34
9,GCTTGCACGTGGAGAG,0
10,AGTTACACGTGTAAAT,0.31
11,TGGGTCACGTGAGGCG,0.26
12,TGTTACACGTGTACTA,0.24
13,GTAGACACGTGGTGAT,-0.05
14,ACTTTCACGTGTGAGG,0.37
15,AGGTTCACGTGTCGGG,0.3
16,TCAAGCACGTGTAGTG,-0.12
17,CCTTTCACGTGTGGTG,0.13
18,AGGTGCACGTGCTCGT,-0.23
19,GTCCTCACGTGGTTGT,0.22
20,GGGTTCACGTGTTGAG,0.46
21,GTGAGCACGTGTGGAG,-0.01
22,TTTGGCACGTGGTGTT,-0.18
23,GTAGGCACGTGTCGGT,0.05
24,GTTCGCACGTGGTGGT,-0.01
25,GGGGGCACGTGTCCAG,-0.05
26,AGCTACACGTGTGGTT,0.05

row,Sequence,relative binding free energy [kcal/mol]
1,TGTTGCACGTGACTGG,0.06
2,GGTGGCACGTGTGTCA,0.02
3,TTGGGCACGTGCTTTT,-0.13
4,GGCTTCACGTGGGGTC,0.2
5,TGCATCACGTGAGTGT,0.26
6,TATATCACGTGCTGTT,0.09
7,TAGGTCACGTGATTTA,0.23
8,TTAGTCACGTGGTGAA,0.04
9,TGTTGCACGTGGATGC,0.06
10,CATGTCACGTGTGAGC,0.29
11,TGCGTCACGTGGGATC,-0.01
12,CGTGACACGTGTTTGG,-0.01
13,TGCGGCACGTGGCGGT,-0.11
14,ATTATCACGTGCGGTC,0.26
15,TTTCACACGTGATGAT,0.3
16,GGGCGCACGTGGGATT,-0.2
17,GTGTTCACGTGCGTTT,0.26
18,TCTGTCACGTGGGAGC,-0.01
19,GGTATCACGTGTATCA,0.32
20,CAGATCACGTGTTGTT,0.12
21,GGGGACACGTGTGGGC,0.16
22,GCTGTCACGTGGGGGA,0.04
23,TTGAACACGTGGATGT,0.04
24,GGTTTCACGTGCAAGA,0.44
25,GCAGTCACGTGATGGG,0.15
26,ATTCACACGTGAGTTG,0.35

row,Sequence,relative binding free energy [kcal/mol]
1,TAGGTCACGTGGTTAT,0.09
2,AAGTTCACGTGTATAG,0.16
3,AAGTTCACGTGGGTAT,0.13
4,AAGAGCACGTGTGTCG,-0.1
5,ATATACACGTGAGGAT,0.36
6,GATGCCACGTGTTTGG,-0.01
7,AATTTCACGTGGGTTG,0.16
8,TGTGACACGTGAGACT,0.26
9,CTGGGCACGTGGCGCG,-0.19
10,GGTAGCACGTGATTAG,0.2
11,TTCGGCACGTGGTGGG,-0.09
12,CGGCTCACGTGTTTAG,0.31
13,CTAAGCACGTGGTTGG,-0.23
14,AAACGCACGTGATGAG,0.21
15,TAGTTCACGTGCGGAC,0.38
16,CGTAGCACGTGGGGCG,-0.2
17,TAGTACACGTGAATTT,0.23
18,TAAAACACGTGGGCGT,-0.04
19,AAACGCACGTGTAGTG,0.01
20,TGTTACACGTGGTAGT,0.02
21,TGGGACACGTGTGCGC,0.06
22,GGTGACACGTGGAAGG,0.08
23,GTATGCACGTGAGGCA,0.24
24,AGTAGCACGTGGGGCA,-0.24
25,CAGGTCACGTGTCGGT,0.16
26,GGATTCACGTGGAGAC,0.38

row,Sequence,relative binding free energy [kcal/mol]
1,ATCTGCACGTGAGGAT,0.21
2,TCGTGCACGTGTATTT,0.05
3,GTGATCACGTGGAGCT,0.08
4,GGGACCACGTGTGGAT,0.1
5,GGGGACACGTGGGATC,0.07
6,ATTCTCACGTGTATTG,0
7,TGAGACACGTGAGATT,0.22
8,ATTTACACGTGCTTGA,0.05
9,GTGGACACGTGGGGAG,0.01
10,TGTTGCACGTGTACTA,-0.09
11,TGGAGCACGTGACTTT,0.1
12,TGTTGCACGTGCTGTC,-0.01
13,TAAGGCACGTGTGGAG,-0.03
14,GGTCGCACGTGGGGTA,-0.21
15,TGTTTCACGTGAGTCT,0.36
16,GCTGTCACGTGATTTG,0.27
17,GTGGGCACGTGAAAGA,0.28
18,AGGGACACGTGGCAAG,-0.1
19,AAAAACACGTGAAGGT,0.43
20,ATGCTCACGTGACGGT,0.26
21,GGTTACACGTGTAGGT,0.19
22,GTGGACACGTGTATAG,0.14
